What is called pIC50 is the negative decadic logarithm of the IC50, by convention in mol/L.

pIC50: −log10 of the molar value.

Chain of UniProt O14744 (O14744 whole entry): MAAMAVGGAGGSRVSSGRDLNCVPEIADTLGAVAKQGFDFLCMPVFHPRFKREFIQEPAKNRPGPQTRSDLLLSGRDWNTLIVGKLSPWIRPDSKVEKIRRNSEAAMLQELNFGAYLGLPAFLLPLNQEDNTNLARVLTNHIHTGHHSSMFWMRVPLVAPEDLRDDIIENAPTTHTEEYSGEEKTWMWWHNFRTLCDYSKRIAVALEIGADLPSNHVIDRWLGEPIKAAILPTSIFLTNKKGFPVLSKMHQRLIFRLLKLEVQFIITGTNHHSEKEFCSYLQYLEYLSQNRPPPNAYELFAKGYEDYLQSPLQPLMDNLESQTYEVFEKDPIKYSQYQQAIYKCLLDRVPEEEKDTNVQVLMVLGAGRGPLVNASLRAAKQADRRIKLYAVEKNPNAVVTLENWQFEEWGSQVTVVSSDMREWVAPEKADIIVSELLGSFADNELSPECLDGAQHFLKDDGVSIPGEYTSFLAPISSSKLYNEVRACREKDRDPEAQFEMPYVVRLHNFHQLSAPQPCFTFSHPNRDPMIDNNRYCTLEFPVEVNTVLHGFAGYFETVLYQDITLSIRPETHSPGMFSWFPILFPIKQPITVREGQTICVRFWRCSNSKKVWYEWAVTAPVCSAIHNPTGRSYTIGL
Chain of UniProt O14744 (Q9BQA1 whole entry partner): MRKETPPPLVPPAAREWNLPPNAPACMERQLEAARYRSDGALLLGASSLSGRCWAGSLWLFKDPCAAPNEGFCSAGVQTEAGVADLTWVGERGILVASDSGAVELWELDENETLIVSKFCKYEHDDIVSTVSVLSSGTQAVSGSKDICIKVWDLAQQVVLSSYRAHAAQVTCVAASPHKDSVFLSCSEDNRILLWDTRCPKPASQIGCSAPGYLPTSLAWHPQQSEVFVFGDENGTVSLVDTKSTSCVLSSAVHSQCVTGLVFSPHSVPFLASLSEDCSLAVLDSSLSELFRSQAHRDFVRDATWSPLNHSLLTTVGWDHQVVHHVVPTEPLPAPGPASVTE

For the experiment, the target named is PRMT5/MEP50 Complex (Homo sapiens (Human), UniProt O14744). As to the kind of experiment: PRMT5 inhibition based on TR-FRET assay. It counts as biochemical. The following applies: 32 nM PRMT5:MEP50, 50 nM Histone-H4 peptide, 1 μM SAM. The text has this: PRMT5 Inhibition Based on TR-FRET Assay:
Protein arginine methyltransferase 5 (PRMT5) is a type II arginine methyltransferase that catalyze mono- and symmetric demethylation on arginine residues of histone or non-histone proteins in presence of S-adenosylmethionine (AdoMet or SAM) a cofactor responsible for donating the methyl group. PRMT5 is reported to be overexpressed in several human cancers. To identify compounds that inhibit the PRMT5 and decrease its activity, a TR-FRET based assay has been established. Time-resolved fluorescence resonance energy transfer (TR-FRET) HTS assays are homogeneous proximity assays where the interaction of two dye-labeled binding partners is detected by the energy transfer between a donor and an acceptor dye and the subsequent light emission by the acceptor dye. PRMT5 catalyzes Histone H4 peptide which is biotin tagged to the Lysine amino acid at carboxyl end, in presence of S-adenosyl-1-methionine (SAM) to methylate the peptide. The antibody specific to mono methylated H4 peptide (H4R3) with Ig conjugate binds to the methylated peptide, indirectly binding to the Europium lanthanide. SureLight Allophycocyanin-Streptavidin binds to the biotin tag of the peptide, therefore accepting the energy transferred from the Europium lanthanide. This energy transfer between Europium to SureLight Allophycocyanin is a direct measure of the activity/inhibition of the PRMT5 enzyme.
Assay buffer: 20 mM BICINE (pH 7.6), 25 mM NaCl, 2 mM DTT, 0.01% Tween-20 and 0.01% BSA.
The compound dilutions were prepared as 7.5% DMSO stock solutions in assay buffer. To 2 μL (7.5×) of test compound, 5 μL of PRMT5 enzyme prepared in assay buffer (Final concentration of 32 nM in 15 μL reaction volume) was added and allowed for 30 minutes pre-incubation time in a white polystyrene 384-well plate at room temperature. […] The plates were then read on Victor-3 with Excitation at 340 nm and Emissions collected at 615 and 665 nm in TR-FRET protocol. […]
On the technique in general: Time-resolved FRET reads energy transfer from a long-lived donor to a nearby acceptor.
As for `Cc1cccc(Cn2c(=O)n(CC(O)CN3CCc4ccccc4C3)c3ccccc32)c1` (stereo not drawn) [Example 90, 1-(3-(3,4-Dihydroisoquinolin-2(1H)-yl)-2-hydroxypropyl)-3-(3-methylbenzyl)-1,3-dihydro-2H-benzo[d]imidazol-2-one], the pIC50 was 6.59.
Compound `CS(=O)(=O)c1ccc(Cn2c(=O)n(CC(O)CN3CCc4ccccc4C3)c3cc(F)ccc32)cc1` (stereo not drawn) [Example 97, 3-(3-(3,4-Dihydroisoquinolin-2(1H)-yl)-2-hydroxypropyl)-5-fluoro-1-(4-(methylsulfonyl)benzyl)-1,3-dihydro-2H-benzo[d]imidazol-2-one] showed a pIC50 of 7.40.
Compound `N#Cc1ccc(Cn2c(=O)n(CC(O)CN3CCc4ccccc4C3)c3ncccc32)nc1` (stereo not drawn) [Example 99, 6-((3-(3-(3,4-dihydroisoquinolin-2(1H)-yl)-2-hydroxypropyl)-2-oxo-2,3-dihydro-1H-imidazo[4,5-b]pyridin-1-yl)methyl)nicotinonitrile] showed a negative logarithm of the IC50 (pIC50) of 6.68. Compared with the last compound, the pIC50 is 0.72 log units lower.

Values taken from US11365205B2 (Aurigene Discovery Technologies Limited, priority 2018, dated 2022).
